Laboratory results reported in publication PMC6005816.
Where two headings read alike, the source gives them in different places. No constants are given. Whether binding was seen depends on the method and setting. For part of these data: Binding seen in cells or lysates may run through a third protein. Some binding calls cover weakened binding; strength is not graded here. For part of these data: Sequences can lack the tags named with a protein.

Amino acid sequences for entries named in this document (tags omitted). A change or cut given only in a name is not applied to a line headed by its entry. Residues count along the entry.
UniProt Q8N668: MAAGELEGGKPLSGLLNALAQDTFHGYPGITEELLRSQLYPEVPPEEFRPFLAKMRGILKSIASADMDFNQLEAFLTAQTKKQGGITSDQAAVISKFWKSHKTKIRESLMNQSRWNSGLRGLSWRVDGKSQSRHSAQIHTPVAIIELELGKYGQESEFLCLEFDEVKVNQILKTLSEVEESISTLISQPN
UniProt Q567U6: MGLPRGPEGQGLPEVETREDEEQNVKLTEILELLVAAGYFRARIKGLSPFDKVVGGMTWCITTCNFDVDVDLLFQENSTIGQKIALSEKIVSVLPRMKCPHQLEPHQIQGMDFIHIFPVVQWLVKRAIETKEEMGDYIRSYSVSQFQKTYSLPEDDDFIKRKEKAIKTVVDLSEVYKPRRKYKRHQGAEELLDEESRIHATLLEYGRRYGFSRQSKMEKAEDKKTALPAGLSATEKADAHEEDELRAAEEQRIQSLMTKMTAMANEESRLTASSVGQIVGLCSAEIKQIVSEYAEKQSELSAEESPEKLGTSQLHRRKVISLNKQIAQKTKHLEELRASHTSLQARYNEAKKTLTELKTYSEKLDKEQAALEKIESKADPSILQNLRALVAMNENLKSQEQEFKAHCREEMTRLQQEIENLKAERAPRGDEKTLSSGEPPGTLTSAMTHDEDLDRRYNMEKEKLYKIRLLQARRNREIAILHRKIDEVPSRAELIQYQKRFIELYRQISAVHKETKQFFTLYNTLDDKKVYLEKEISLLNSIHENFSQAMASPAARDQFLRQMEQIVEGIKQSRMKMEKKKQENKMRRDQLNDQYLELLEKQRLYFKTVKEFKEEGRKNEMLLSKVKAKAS
UniProt O60826: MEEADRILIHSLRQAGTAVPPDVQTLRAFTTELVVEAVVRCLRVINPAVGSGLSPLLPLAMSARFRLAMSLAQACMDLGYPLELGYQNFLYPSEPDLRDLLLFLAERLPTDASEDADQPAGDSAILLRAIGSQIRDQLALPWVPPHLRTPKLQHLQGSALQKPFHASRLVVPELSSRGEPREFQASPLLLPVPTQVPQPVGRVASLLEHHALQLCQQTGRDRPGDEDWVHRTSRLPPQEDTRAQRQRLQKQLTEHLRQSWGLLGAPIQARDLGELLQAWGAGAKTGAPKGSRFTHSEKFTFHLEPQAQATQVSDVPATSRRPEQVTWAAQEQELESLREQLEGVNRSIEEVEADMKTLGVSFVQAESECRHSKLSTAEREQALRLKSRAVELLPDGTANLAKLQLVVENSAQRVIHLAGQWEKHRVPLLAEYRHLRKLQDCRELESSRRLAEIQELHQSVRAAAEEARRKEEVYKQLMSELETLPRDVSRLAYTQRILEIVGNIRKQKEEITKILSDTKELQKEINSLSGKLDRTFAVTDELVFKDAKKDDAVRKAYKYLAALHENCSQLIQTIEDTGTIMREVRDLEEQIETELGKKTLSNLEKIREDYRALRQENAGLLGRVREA
myc-CCDC22 (1–322): residues 1-322 of O60826
myc-CCDC22 (1–143): residues 1-143 of O60826
myc-CCDC22 (144–627): residues 144-627 of O60826
myc-CCDC22 (323–627): residues 323-627 of O60826

T1: VPS33B-GFP (human) (UniProt Q9H267)
T1 sequence: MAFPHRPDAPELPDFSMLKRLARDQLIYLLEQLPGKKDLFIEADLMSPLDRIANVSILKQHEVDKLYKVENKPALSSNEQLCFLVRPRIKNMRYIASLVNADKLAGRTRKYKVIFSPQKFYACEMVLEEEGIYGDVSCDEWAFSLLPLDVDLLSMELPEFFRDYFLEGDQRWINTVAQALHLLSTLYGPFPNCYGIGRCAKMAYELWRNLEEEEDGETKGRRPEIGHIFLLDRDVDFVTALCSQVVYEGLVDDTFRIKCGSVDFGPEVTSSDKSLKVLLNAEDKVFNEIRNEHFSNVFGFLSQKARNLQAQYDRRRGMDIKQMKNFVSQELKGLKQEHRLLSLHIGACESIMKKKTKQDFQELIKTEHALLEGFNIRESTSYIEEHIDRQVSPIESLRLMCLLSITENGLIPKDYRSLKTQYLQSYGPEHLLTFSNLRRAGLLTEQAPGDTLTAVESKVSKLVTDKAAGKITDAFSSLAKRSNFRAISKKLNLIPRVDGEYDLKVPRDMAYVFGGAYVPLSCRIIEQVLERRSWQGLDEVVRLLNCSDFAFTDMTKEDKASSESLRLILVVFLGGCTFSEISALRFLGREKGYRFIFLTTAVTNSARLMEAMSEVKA

T2: GST-VIPAR, co-expressed in E. coli (UniProt Q9H9C1)
T2 sequence: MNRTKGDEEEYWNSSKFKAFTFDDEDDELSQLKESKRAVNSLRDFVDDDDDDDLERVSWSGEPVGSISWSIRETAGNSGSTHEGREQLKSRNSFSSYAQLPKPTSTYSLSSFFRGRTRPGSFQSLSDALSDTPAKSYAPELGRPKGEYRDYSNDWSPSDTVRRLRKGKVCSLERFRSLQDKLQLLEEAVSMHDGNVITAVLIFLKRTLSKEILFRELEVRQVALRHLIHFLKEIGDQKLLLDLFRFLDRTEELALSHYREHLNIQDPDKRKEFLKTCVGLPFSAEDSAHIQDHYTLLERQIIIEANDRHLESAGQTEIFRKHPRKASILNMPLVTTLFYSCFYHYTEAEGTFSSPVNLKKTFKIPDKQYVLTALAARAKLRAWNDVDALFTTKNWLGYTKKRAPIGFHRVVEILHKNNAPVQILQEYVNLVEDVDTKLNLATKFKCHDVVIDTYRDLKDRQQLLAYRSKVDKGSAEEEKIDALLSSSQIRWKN

T3: endogenous VIPAR (human (endogenous in HEK293 Flp-In T-REx, HEK293T)) (UniProt Q9H9C1)
T3 sequence: T2 sequence

B1: VPS33B, co-expressed in E. coli (protein, UniProt Q9H267 1-617)
chain: T1 sequence
B2: endogenous VPS33B (protein, UniProt Q9H267 1-617)
chain: T1 sequence

Experiments:
[1] = molecular target: endogenous COMMD1 (human (endogenous in HEK293T)) (UniProt Q8N668); assay: SEC; whole-cell fractionation: lysates of untransfected HEK293T cells (also THP-1, HaCaT, HGT-1; with or without 0.5 mM EDTA) on Superose 6 10/300 in 10 mM Tris pH 7.5, 150 mM NaCl, 0.5% NP-40; fractions immunoblotted
[2] = molecular target: endogenous CCDC93 (human (endogenous in HEK293T)) (UniProt Q567U6); assay: as above
VPS33B-GFP (human) = molecular target: T1, VPS33B-GFP (human); assay: co-IP; GFP-Trap on lysates of HEK293T cells transfected with VPS33B-GFP only; blotted for endogenous proteins
[3] = molecular target: myc-CCDC22 (323–627) (human) (UniProt O60826); assay: co-IP; Myc-Trap on lysates of HEK293T cells transfected with full-length, point-mutant or truncated myc-CCDC22; blotted for endogenous proteins
[4] = molecular target: myc-CCDC22 R128Q, expressed in HEK293T (human) (UniProt O60826); assay: as above
[5] = molecular target: myc-CCDC22 (full length, 1–627), expressed in HEK293T (human) (UniProt O60826); assay: as above
[6] = molecular target: myc-CCDC22 R321W, expressed in HEK293T (human) (UniProt O60826); assay: as above
[7] = molecular target: myc-CCDC22 T30A, expressed in HEK293T (human) (UniProt O60826); assay: as above
[8] = molecular target: myc-CCDC22 E239K, expressed in HEK293T (human) (UniProt O60826); assay: as above
[9] = molecular target: myc-CCDC22 T17A, expressed in HEK293T (human) (UniProt O60826); assay: as above
[10] = molecular target: myc-CCDC22 (1–322) (human) (UniProt O60826); assay: as above
[11] = molecular target: T2, GST-VIPAR, co-expressed in E. coli; assay: pull-down + SEC; co-expression in E. coli B834(DE3); co-purified on glutathione sepharose 4B by the GST on VIPAR, then Superdex 200 10/300 GL in 20 mM Tris pH 7.5, 200 mM NaCl, 1 mM DTT; bands confirmed by mass fingerprinting
[12] = molecular target: myc-CCDC22 (144–627) (human) (UniProt O60826); assay: co-IP; Myc-Trap on lysates of HEK293T cells transfected with full-length, point-mutant or truncated myc-CCDC22; blotted for endogenous proteins
[13] = molecular target: myc-CCDC22 (323–627) (human) (UniProt O60826); assay: as above; remark: listed apart in the source
[14] = molecular target: myc-CCDC22 R128Q, expressed in HEK293T (human) (UniProt O60826); assay: as above; remark: listed apart in the source
[15] = molecular target: myc-CCDC22 (1–143) (human) (UniProt O60826); assay: as above
[16] = molecular target: myc-CCDC22 R321W, expressed in HEK293T (human) (UniProt O60826); assay: as above; remark: listed apart in the source
[17] = molecular target: myc-CCDC22 T30A, expressed in HEK293T (human) (UniProt O60826); assay: as above; remark: listed apart in the source
[18] = molecular target: myc-CCDC22 E239K, expressed in HEK293T (human) (UniProt O60826); assay: as above; remark: listed apart in the source
[19] = molecular target: myc-CCDC22 T17A, expressed in HEK293T (human) (UniProt O60826); assay: as above; remark: listed apart in the source
[20] = molecular target: myc-CCDC22 (1–322) (human) (UniProt O60826); assay: as above; remark: listed apart in the source
[21] = molecular target: T3, endogenous VIPAR (human (endogenous in HEK293 Flp-In T-REx, HEK293T)); assay: SEC; whole-cell fractionation: lysates of untransfected HEK293T cells (also THP-1, HaCaT, HGT-1; with or without 0.5 mM EDTA) on Superose 6 10/300 in 10 mM Tris pH 7.5, 150 mM NaCl, 0.5% NP-40; fractions immunoblotted

Molecule | binding (VPS33B-GFP (human)) | binding [4] | binding [5] | binding [6] | binding [7] | binding [8] | binding [9] | binding [10] | further results
endogenous CCDC22 (from UniProt O60826 1-627) |  |  |  |  |  |  |  |  | binding [1]: binds; binding [2]: binds
endogenous CCDC93 (from UniProt Q567U6 1-631) | no binding | binds | binds | binds | binds | binds | binds | binds | binding [3]: binds
endogenous COMMD1 (from UniProt Q8N668 1-190) | no binding | binds | binds | binds | binds | binds | binds | binds | 
B1 |  |  |  |  |  |  |  |  | binding [11]: binds
B2 |  |  |  |  |  |  |  |  | binding [12]: binds; binding [13]: binds; binding [14]: binds; binding [15]: no binding; binding [16]: binds; binding [17]: binds; binding [18]: binds; binding [19]: binds; binding [20]: no binding; binding [21]: binds
